Results on 91 compounds are retold here after PubChem BioAssay AID360 (National Center for Advancing Translational Sciences (NCATS), 2006).

Hit rate of the full screen: of about 48,000 compounds, about 550 (1.1%) were called active. Not shown: some 4% with an inconclusive outcome. Rule as the data show it: active = potency below about 15 µM; inconclusive = mostly about 16 µM to 33 µM; inactive = weaker than that. The list shows a part of the results.
Potency is read from the fitted curve at half-maximal effect.

This test has as its target Lysosomal acid glucosylceramidase (Homo sapiens) (UniProt P04062). Nature of the test: Glucocerebrosidase.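 Also: the screen sought inhibitors.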 To be noted: purified enzyme, resorufin glucoside fluorescence (screen aimed at inhibitors), 20 min. In a few lines: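 Wild-type enzyme at 0.2 nM final in 50mM citric acid/KH2PO4, 10mM sodium taurocholate, 0.01% tween-20, pH 5.9, with resorufin beta-D-glucopyranoside at 30 uM final. Compounds titrated, 20 min at RT, red fluorescence read; AC50 from titration.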
Sequence of UniProt P04062 (P04062 whole entry, looked up): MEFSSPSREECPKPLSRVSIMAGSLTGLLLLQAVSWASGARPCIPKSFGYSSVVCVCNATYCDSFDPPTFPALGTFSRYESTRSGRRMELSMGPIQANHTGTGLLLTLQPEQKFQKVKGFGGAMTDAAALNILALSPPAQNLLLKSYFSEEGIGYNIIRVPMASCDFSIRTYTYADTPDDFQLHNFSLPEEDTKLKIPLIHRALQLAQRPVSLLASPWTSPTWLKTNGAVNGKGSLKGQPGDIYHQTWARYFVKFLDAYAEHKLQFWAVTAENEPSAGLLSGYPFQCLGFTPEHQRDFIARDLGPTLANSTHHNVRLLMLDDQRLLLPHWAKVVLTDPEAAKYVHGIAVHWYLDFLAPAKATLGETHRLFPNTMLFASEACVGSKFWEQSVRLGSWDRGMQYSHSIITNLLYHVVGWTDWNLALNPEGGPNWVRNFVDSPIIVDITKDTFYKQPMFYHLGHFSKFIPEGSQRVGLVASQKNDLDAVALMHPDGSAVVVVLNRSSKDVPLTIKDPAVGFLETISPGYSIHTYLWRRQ
`COc1ccccc1CNC(=O)C1CC(=O)N(c2ccc(C)c(C)c2)C1` (stereo unspecified): the Potency was inactive: > 76.9 µM.
The same measure for `CC1=CC(C)(C)N2C(=O)C3(SCC(=O)N3c3ccc(O)cc3)c3cc(C)cc1c32` (stereo unspecified): inactive: > 76.9 µM; for `Cc1c(C(=O)N2CCOCC2)[nH]c2ccc(OCc3ccccc3)cc12`: inactive: > 76.9 µM.
Regarding `O=C(Nc1c2c(nn1-c1ccc(Cl)cc1)CS(=O)(=O)C2)c1ccc2c(c1)OCO2`, the Potency was inactive: > 76.9 µM.
The same measure for `COC(=O)c1ccccc1NS(=O)(=O)c1ccc(O)c(C(=O)O)c1`: inactive: > 76.9 µM; for `CCCCN1CC(O)=C(c2nc3ccccc3[nH]2)C1=N`: inactive: > 76.9 µM; for `Cc1ccc(S(=O)(=O)Nc2ccccc2C(N)=O)cc1`: inactive: > 76.9 µM.
As for `CC1CN(C(=O)c2cn3ccccc3n2)CC(C)O1` (stereo unspecified), the Potency was inactive: > 76.9 µM.
With `O=S(=O)(Nc1cccc(C(F)(F)F)c1)c1cccnc1`, the Potency was inactive: > 76.9 µM.
The same measure for `O=C(c1ccccn1)N(Cc1cc2ccccc2[nH]c1=O)C1CCCCC1`: inactive: > 76.9 µM; for `Cc1ccc2cc(C)c(SCC#N)nc2c1`: inactive: > 76.9 µM.
As for `COc1cc(-c2c(C#N)c(N)nc3c2CCCC3)cc(OC)c1OC`, the figure is inactive: > 76.9 µM; as for `CN(C)CCCNc1c2c(c(C#N)c3nc4ccccc4n13)CCC2`, inactive: > 76.9 µM.
As for `Cc1cc(NC(=O)CCCC(=O)N(CC(=O)NCCc2ccccc2)Cc2ccc(F)cc2)no1`, the figure is inactive: > 76.9 µM; as for `CC(=O)Cc1nsc(NC(=O)c2ccccc2)n1`, inactive: > 76.9 µM; as for `NC(=O)C(Cc1ccccc1)NS(=O)(=O)c1ccc(N2CCCC2=O)cc1` (stereo unspecified), inactive: > 76.9 µM.
In the case of `Cc1cc(C)n2c(SCc3c(C)noc3C)nnc2n1`, the Potency is inactive: > 76.9 µM.
The same measure for `CCN1C(=O)C(O)(CC(=O)c2cc(C)ccc2C)c2ccccc21` (stereo unspecified): inactive: > 76.9 µM; for `CC1(C)CC(C(=O)Nc2nccs2)CCO1` (stereo unspecified): inactive: > 76.9 µM; for `COC(=O)C(C)NS(=O)(=O)c1ccc(NC(C)=O)cc1` (stereo unspecified): inactive: > 76.9 µM.
As to `Cn1c(=O)[nH]c(=O)c2c1nc(CN1CCOCC1)n2CCc1ccccc1`, the Potency was inactive: > 76.9 µM.
Turning to `CC(c1ccco1)N(C(=O)C12CC3CC(CC(C3)C1)C2)c1ccccn1` (stereo unspecified), the Potency is inactive: > 76.9 µM.
The same measure for `COc1cccc(-c2cc(C(=O)Nc3c(C)nn(Cc4ccccc4C)c3C)no2)c1`: inactive: > 76.9 µM.
The same measure for `CCOC(=O)N1CCN(Cc2nc3c(c(=O)n(C)c(=O)n3C)n2Cc2cccc3ccccc23)CC1`: inactive: > 76.9 µM.
On to `Cc1cc(C(F)(F)F)c2c(N)c(C(=O)Nc3cc(C)on3)sc2n1`, for which the Potency is inactive: > 76.9 µM.
Turning to `COc1ccc(CNc2nc3nc(C)cc(C)n3n2)cc1OC`, the Potency was inactive: > 76.9 µM.
As to `CCOC(=O)c1c(C)[nH]c(C(=O)CN2C(=O)NC(C)(c3ccc(C)cc3)C2=O)c1C` (stereo unspecified), the Potency was inactive: > 76.9 µM.
Turning to `CN(CC(=O)NCCCN1CCOCC1)S(=O)(=O)c1ccc(Br)cc1`, the Potency is inactive: > 76.9 µM.
As for `Cc1cccc(NC(=O)N2CCC(c3nc4ccccc4o3)CC2)c1`, the figure is inactive: > 76.9 µM.
Consider `c1cn(CCCNC2=NCCCCC2)cn1`, for which the Potency is inactive: > 76.9 µM.
As for `CCOc1cccc(-c2nnc3sc(COc4ccc(C)cc4)nn23)c1`, the figure is inactive: > 76.9 µM; as for `O=C(c1ccccc1)N1CCN(S(=O)(=O)N2CCCCC2)CC1`, inactive: > 76.9 µM; as for `O=C(CSc1n[nH]c(-c2cccs2)n1)NCc1cccs1`, inactive: > 76.9 µM.
As for `c1ccc(C2=Nn3c(nnc3-c3cccnc3)SC2)cc1`, the figure is inactive: > 76.9 µM; as for `CC(=O)c1nc(N2C(=O)C3CC=C(C)CC3C2=O)sc1C` (stereo unspecified), inactive: > 76.9 µM; as for `Nc1nnc(SCc2ccc3c(c2)OCO3)s1`, inactive: > 76.9 µM.
As for `COc1ccc(Cl)cc1C(=O)Nc1ccccc1N1CCN(C(=O)C(C)C)CC1`, the figure is inactive: > 76.9 µM; as for `COc1ccc(CCN2C(=O)CC(N3CCN(S(=O)(=O)c4ccccc4)CC3)C2=O)cc1` (stereo unspecified), inactive: > 76.9 µM; as for `Cn1c(=O)oc2cc(S(=O)(=O)N3CCN(c4ccccc4)CC3)ccc21`, inactive: > 76.9 µM.
As to `O=C(O)c1ccc(NC(=O)c2cccs2)cc1`, the Potency was inactive: > 76.9 µM.
With `COc1ccc(-c2nc(N3CCCC3)nc3nn4c(C)cc(C)nc4c23)cc1`, the Potency is inactive: > 76.9 µM.
With `CCOC(=O)N1CCC(NC(=O)c2cc(C(=O)Nc3ccc(OCC)cc3)ccc2CO)CC1`, the Potency was inactive: > 76.9 µM.
The same measure for `O=C(CSc1ncn(-c2ccccc2)n1)Nc1ccc(Br)cn1`: inactive: > 76.9 µM.
As to `CC1CCCCN1C(=O)c1cc(F)c(F)cc1Cl` (stereo unspecified), the Potency is inactive: > 76.9 µM.
As for `Cc1nc(NC(CC(C)C)C(=O)O)c2nc(C)oc2n1` (stereo unspecified), the figure is inactive: > 76.9 µM.
As for `COc1ccc(C(=O)N(CCN2CCOCC2)CC(=O)NC2CCCC2)cc1OC`, the figure is inactive: > 76.9 µM; as for `O=S(=O)(NCc1cn2ccsc2n1)c1cccs1`, inactive: > 76.9 µM; as for `O=C(NCc1ccccc1)c1c(F)c(F)c(F)c(F)c1F`, inactive: > 76.9 µM.
Consider `CC1CCCCN1C(=O)Nc1cccc(Cl)c1` (stereo unspecified), for which the Potency is inactive: > 76.9 µM.
The same measure for `[O-][n+]1onc2c1CCC1N(O)C(c3ccccc3)CC21O` (stereo unspecified): inactive: > 76.9 µM; for `COc1cccc(NC(=O)Cn2c(=O)n(CCCC(=O)NCc3ccco3)c(=O)c3ccccc32)c1`: inactive: > 76.9 µM.
On to `CC1CC(C)CN(CCCNC(=O)c2cn(C)c3ccc(S(=O)(=O)N4CCCC4)cc3c2=O)C1` (stereo unspecified), for which the Potency was inactive: > 76.9 µM.
As for `O=C(Nc1ccc(F)cc1)N(CCCN1CCOCC1)Cc1cc2cc3c(cc2[nH]c1=O)OCCO3`, the figure is inactive: > 76.9 µM.
For the compound `COCCNC(=O)c1cc(-c2ccc3c(c2)OCO3)on1`, the Potency was inactive: > 76.9 µM.
Consider `COc1ccc(S(=O)(=O)NCC(c2cccnc2)N2CCN(c3ccccc3)CC2)cc1C` (stereo unspecified), for which the Potency result was “inactive”.
The same measure for `Cc1ccccc1NC(=O)C(C#N)Cc1cccnc1` (stereo unspecified): inactive: > 76.9 µM; for `Cc1ccc(-n2c3c(cc(C(=O)O)c2=O)C(=O)CC(C)(C)C3)cc1`: inactive: > 76.9 µM; for `CCCC(c1nnnn1C1CCCC1)N1CCN(C(=O)c2ccco2)CC1` (stereo unspecified): inactive: > 76.9 µM.
As for `COC(=O)c1c(NC(=O)c2ccco2)sc(C)c1C`, the entry is “inactive”.
The same measure for `O=C(CCN1C(=O)c2cccnc2C1=O)NC1CCCCCC1`: inactive: > 76.9 µM; for `Nc1cc(-c2ccco2)no1`: inactive: > 76.9 µM.
On to `O=C1CCc2cc(S(=O)(=O)NCCC(=O)NC3CCN(Cc4ccccc4)CC3)ccc2N1`, for which the Potency is inactive: > 76.9 µM.
As for `Cc1noc(COc2ccccc2OCC(N)=O)c1Cl`, the figure is inactive: > 76.9 µM; as for `COc1ccc(-c2nc(CS(=O)CC(=O)NCCCN3CCCC3)c(C)o2)cc1OC` (stereo unspecified), inactive: > 76.9 µM; as for `COc1cccc2cc(-c3cn4cccc(C)c4n3)c(=O)oc12`, inactive: > 76.9 µM.
The same measure for `O=C(O)c1ccc2c(c1)ncn2C1CCCCCC1`: inactive: > 76.9 µM; for `CCn1c(SCC(=O)Nc2nnc(C)s2)nnc1-c1ccncc1`: inactive: > 76.9 µM.
The same measure for `COc1ccc(C(=O)CSc2nnc(-c3cccnc3)n2Cc2ccco2)cc1`: inactive: > 76.9 µM; for `CS(=O)(=O)Nc1nnc(Cc2ccccc2)s1`: inactive: > 76.9 µM.
Consider `O=C1C2C3C=CC([C@@H]2C(=O)N1c1nccs1)C31CC1` (stereo partly specified), for which the Potency is inactive: > 76.9 µM.
As for `COc1nc(C#N)nc(N(C)C)n1`, the figure is inactive: > 76.9 µM; as for `COc1ccc(C2c3c(-c4ccccc4O)n[nH]c3C(=O)N2CCc2ccc(OC)c(OC)c2)cc1` (stereo unspecified), inactive: > 76.9 µM.
The same measure for `Nc1nnc(SCC(=O)N2CCc3ccccc32)n1-c1ccccc1`: inactive: > 76.9 µM; for `O=C(COc1cccc2cccnc12)N1CCc2ccccc2C1`: inactive: > 76.9 µM.
As for `Cc1ccc2nsnc2c1S(=O)(=O)N(Cc1ccco1)Cc1cc2cccc(C)c2[nH]c1=O`, the figure is inactive: > 76.9 µM; as for `CC(C(=O)Nc1ccccc1C(=O)N1CCCC1)n1nnc2ccccc21` (stereo unspecified), inactive: > 76.9 µM.
For the compound `Cc1ccc(/C(COc2ccccc2O)=N\O)cc1`, the Potency was inactive: > 76.9 µM.
As for `CCn1c(COc2ccc(Cl)cc2)nnc1SCC(=O)Nc1ccc2c(c1)OCO2`, the figure is inactive: > 76.9 µM; as for `CSc1cc(C)nc(NC(C)=O)n1`, inactive: > 76.9 µM; as for `CCCc1[nH]nc2c1C(c1ccccc1OCC)C(C#N)=C(N)O2` (stereo unspecified), inactive: > 76.9 µM.
As for `COc1ccc(CCNC(=O)CCNS(=O)(=O)c2cccc3nsnc23)cc1OC`, the figure is inactive: > 76.9 µM; as for `CCOC(=O)c1c(-c2ccc(OC)cc2)nc2nonc2c1N`, inactive: > 76.9 µM; as for `CCOc1ccc(C(c2nnnn2Cc2ccccc2)N2CCN(C(=O)c3ccco3)CC2)cc1` (stereo unspecified), inactive: > 76.9 µM.
As for `O=C(NCc1cccnc1)c1noc2c1CCCCC2`, the figure is inactive: > 76.9 µM.
Regarding `Cc1cc(S(=O)(=O)NCc2cccnc2)ccc1-n1cnnn1`, the Potency was inactive: > 76.9 µM.
For the compound `Cc1nnc2n(C3CCCCC3)c(=O)c3c4c(sc3n12)CCC4`, the Potency is inactive: > 76.9 µM.
On to `COc1ccc(C2CC(C(F)(F)F)n3nc(CO)c(Cl)c3N2)cc1OC` (stereo unspecified), for which the Potency was active: 5.86 µM.
The same measure for `CSc1nsc(SC)c1NC(=O)OC1CCCCC1`: inactive: > 76.9 µM.
The same measure for `O=CN1CCN(C(C(=O)NC2CCCC2)c2ccc(Cl)cc2)CC1` (stereo unspecified): inactive: > 76.9 µM.
As for `O=C(Cn1nc(C(F)(F)F)c2c1CCC2)NC1CCCCC1`, the figure is inactive: > 76.9 µM.
Regarding `Cc1ccc(S(=O)(=O)N2CCC(C(=O)Nc3nnc(COc4ccccc4)s3)CC2)cc1`, the Potency is inactive: > 76.9 µM.
